The values below come from PMC9671898.

By UniProt entry, the sequences of proteins in these tests, tags left out.
UniProt Q96524: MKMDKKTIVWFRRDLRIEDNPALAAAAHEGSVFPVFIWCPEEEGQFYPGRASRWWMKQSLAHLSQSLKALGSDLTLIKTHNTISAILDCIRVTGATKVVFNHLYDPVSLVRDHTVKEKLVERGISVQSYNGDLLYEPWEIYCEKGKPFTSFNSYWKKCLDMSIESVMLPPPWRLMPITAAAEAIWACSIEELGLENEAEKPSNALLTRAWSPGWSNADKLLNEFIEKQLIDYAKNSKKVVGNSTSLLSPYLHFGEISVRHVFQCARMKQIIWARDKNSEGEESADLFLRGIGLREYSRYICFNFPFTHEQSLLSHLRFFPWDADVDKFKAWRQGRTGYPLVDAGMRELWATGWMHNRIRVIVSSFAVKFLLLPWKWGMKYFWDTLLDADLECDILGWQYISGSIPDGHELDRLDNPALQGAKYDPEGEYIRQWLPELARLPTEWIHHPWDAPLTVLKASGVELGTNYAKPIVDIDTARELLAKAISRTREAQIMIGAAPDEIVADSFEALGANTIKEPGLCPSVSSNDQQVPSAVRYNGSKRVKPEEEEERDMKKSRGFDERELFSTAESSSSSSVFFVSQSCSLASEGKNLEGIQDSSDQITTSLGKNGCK

Results are given in words; binding and its absence hold for the method and conditions named. In cells and extracts the contact can be indirect. Some binding calls cover weakened binding; strength is not graded here.

In assay [1] the target is T1, CIS1, endogenous in Arabidopsis seedlings (Arabidopsis thaliana (endogenous in Col-0 seedlings)) (UniProt Q94C11).
T1 sequence: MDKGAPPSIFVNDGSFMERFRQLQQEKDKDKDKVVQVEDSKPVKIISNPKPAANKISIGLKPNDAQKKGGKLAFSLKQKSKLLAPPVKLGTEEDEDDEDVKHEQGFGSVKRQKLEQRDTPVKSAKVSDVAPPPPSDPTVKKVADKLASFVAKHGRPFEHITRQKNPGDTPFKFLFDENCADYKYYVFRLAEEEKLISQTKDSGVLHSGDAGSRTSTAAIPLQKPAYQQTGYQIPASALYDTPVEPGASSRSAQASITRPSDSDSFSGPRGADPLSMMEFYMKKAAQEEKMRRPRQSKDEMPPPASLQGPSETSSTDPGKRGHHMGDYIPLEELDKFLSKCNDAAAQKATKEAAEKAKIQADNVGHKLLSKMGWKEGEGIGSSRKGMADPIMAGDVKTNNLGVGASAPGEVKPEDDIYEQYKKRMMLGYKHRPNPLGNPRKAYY
In words: co-IP; as the blue-light sample, but Col-0 seedlings kept in darkness for the additional 20 min (dark control); IP with anti-CIS1 antibody, blot with anti-CRY2.

The target in assay [2] is T1, CIS1, endogenous in Arabidopsis seedlings (Arabidopsis thaliana (endogenous in Col-0 seedlings)). The assay can be described thus: co-IP; endogenous proteins of Col-0 seedlings pretreated in darkness 24 h, MG132 in the dark, then blue light (30 μmol m^-2 s^-1) for 20 min; IP with anti-CIS1 antibody and protein-A Sepharose, 150 mM NaCl, 0.1% NP40, 4 °C; blot with anti-CRY2.

“CRY2, endogenous in Arabidopsis seedlings (from UniProt Q96524 1-612) (receptor)”: the values for the binding entry in assay [1] and in assay [2] were “binds weakly” and “binds”, respectively.
